Experimental data taken from PubChem BioAssay AID720708 (National Center for Advancing Translational Sciences (NCATS), 2013).
Hit rate of the full screen: of about 360,000 compounds, about 660 (0.18%) were called active. The shares of active, inactive and inconclusive entries below differ from those in the screen. The call rests on the fitted dose curve; in most records, active means well fitted inhibition curve with a large enough effect; inconclusive means small, poorly fitted or top-dose-only effect; inactive means no such curve, though single readings can be large or run the other way. No potency is given beside an inconclusive call; the fits are too rough.

The molecules below were run against Rap guanine nucleotide exchange factor 4 (Homo sapiens) (UniProt Q8WZA2) (assay: qHTS for Antagonist of cAMP-regulated guanine nucleotide exchange factor 2 (EPAC2): primary screen). Details: EPAC2 GEF exchange of Rap1B-BODIPY-GDP, fluorescence; series mostly up to 114 µM.
Sequence of UniProt Q8WZA2 (Q8WZA2 whole entry, looked up): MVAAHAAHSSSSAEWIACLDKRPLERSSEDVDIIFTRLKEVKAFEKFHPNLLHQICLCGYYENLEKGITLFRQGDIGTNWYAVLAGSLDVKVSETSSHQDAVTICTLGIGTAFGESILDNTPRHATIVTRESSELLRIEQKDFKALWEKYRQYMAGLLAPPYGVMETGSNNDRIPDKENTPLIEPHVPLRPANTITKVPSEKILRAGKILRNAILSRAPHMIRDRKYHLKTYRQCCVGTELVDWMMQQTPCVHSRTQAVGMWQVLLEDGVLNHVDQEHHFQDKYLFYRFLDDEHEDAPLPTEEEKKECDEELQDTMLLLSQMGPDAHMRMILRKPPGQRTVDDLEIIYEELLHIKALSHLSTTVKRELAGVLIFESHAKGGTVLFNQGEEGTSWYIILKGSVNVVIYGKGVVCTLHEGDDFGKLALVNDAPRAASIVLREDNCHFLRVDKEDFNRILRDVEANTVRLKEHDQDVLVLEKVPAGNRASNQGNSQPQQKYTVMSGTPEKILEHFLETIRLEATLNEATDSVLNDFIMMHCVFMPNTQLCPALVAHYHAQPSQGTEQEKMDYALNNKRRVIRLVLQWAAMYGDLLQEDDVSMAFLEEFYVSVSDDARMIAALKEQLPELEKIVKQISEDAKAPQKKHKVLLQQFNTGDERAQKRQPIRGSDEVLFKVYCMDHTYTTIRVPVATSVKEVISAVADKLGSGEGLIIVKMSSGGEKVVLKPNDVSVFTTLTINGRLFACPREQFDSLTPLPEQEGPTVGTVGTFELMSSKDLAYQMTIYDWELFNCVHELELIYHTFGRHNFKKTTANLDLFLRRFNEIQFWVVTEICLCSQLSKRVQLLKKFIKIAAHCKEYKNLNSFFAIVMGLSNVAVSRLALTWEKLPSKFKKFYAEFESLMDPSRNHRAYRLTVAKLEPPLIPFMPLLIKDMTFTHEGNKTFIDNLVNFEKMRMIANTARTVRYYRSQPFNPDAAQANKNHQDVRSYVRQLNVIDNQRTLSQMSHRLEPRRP
Further: nearly all actives have a fitted effect of over 45% in size.
Potency means the concentration at half of the fitted maximal effect; tags describe the fitted curve by direction and shape.

Compound	Potency
COc1ccccc1-n1c(SCC(=O)N2CCCC2)nnc1-c1ccccc1	inconclusive [inhibitor, single point]
Cc1ccc(S(=O)(=O)Nc2nc3ccccc3s2)cc1[N+](=O)[O-]	inconclusive [inhibitor, partial curve]
CCN(CC)C(=O)CC(c1ccc2c(c1)OCO2)c1c(O)cc(OC)cc1OC (configuration not stated)	inconclusive [inhibitor, single point]
O=C(O)c1cc(N=Nc2c(O)[nH]c3ccc([N+](=O)[O-])cc23)ccc1Cl	inconclusive [inhibitor, partial curve, poor fit]
Nc1c2c(=O)[nH]c(O)cc2nn1-c1ccccc1	inactive
CC(=O)NC(Cc1c[nH]c2ccccc12)C(=O)NCc1ccco1 (configuration not stated)	inconclusive [inhibitor, single point]
C=CCn1c(N)c(C(=O)NCc2ccco2)sc1=S	inactive
COc1ccc(C(C#N)N2N=C(C)CC2c2ccccc2)cc1 (configuration not stated)	inconclusive [inhibitor, partial curve]
O=S(=O)(O)c1ccc2c(c1)C(C(Cl)(Cl)Cl)OC(C(Cl)(Cl)Cl)O2 (configuration not stated)	inconclusive [inhibitor, partial curve]
CCC(NC(=O)c1cccc(Cn2cc([N+](=O)[O-])cn2)c1)c1ccc(C(C)C)cc1 (configuration not stated)	inconclusive [inhibitor, partial curve]
CC(=O)Nc1ccc(S(=O)(=O)NNC(=O)COc2ccc(Cl)cc2Cl)cc1	inconclusive [inhibitor, full curve, poor fit]
Cc1cc(C)c2nc(-c3ccccn3)cc(C(=O)Nc3ccc(S(=O)(=O)Nc4onc(C)c4C)cc3)c2c1	inconclusive [inhibitor, single point]
CCOC(=O)c1c(C(F)(F)C(F)(F)C(F)(F)C(F)(F)F)n[nH]c1C	inconclusive [inhibitor, full curve, poor fit]
CSc1oc(-c2ccccc2)nc1S(=O)(=O)c1ccc(F)cc1	inactive
CCOC(=O)C1=CC[C@H]2c3c(c4ccccc4n3C)C(=O)C1N2C(=O)OC(C)(C)C	inconclusive [inhibitor, single point]
CCOc1cc(CC(=O)N[C@@H](CC(C)C)c2ccccc2N2CCCCC2)ccc1C(=O)O	inconclusive [inhibitor, partial curve]
Cc1c(C(=O)NC(C)c2ccccn2)oc2c(Cl)cccc12 (configuration not stated)	inconclusive [inhibitor, single point]
